From PubChem BioAssay AID504333 (National Center for Advancing Translational Sciences (NCATS), 2011)
About 16,000 (4.4%) of roughly 360,000 compounds were called active. Inconclusive results, whose numbers are uncertain, are shown with a selection of clear calls. Calls follow the shape of the dose curve; as a rule, active = well fitted inhibition curve with a large enough effect; inconclusive = small, poorly fitted or top-dose-only effect; inactive = no such curve, though single readings can be large or run the other way. Potencies beside an inconclusive call are fits to weak or partial responses and may not hold up. Where a SMILES comes first, the peptide text is derived from it. [ ]: non-standard residue; d: D form. The star is where a group is joined. ξ: configuration not given here. ξPhe(4-Me) = Cc1ccc(CC(N)C(=O)O)cc1; Bz = O=C(c1ccccc1)*
Also: nearly all actives have a fitted effect of over 60% in size.
Potency is read from the fitted curve at half-maximal effect; tags tell the direction and shape of the fitted curve.

These molecules were tested against Bromodomain adjacent to zinc finger domain protein 2B (Homo sapiens) (UniProt Q9UIF8) (assay: qHTS Assay for Inhibitors of BAZ2B). Details: AlphaScreen BAZ2B-H3K14Ac peptide displacement; series mostly up to 114 µM.
UniProt Q9UIF8, sequence (Q9UIF8 whole entry, looked up, the tested form may be a part): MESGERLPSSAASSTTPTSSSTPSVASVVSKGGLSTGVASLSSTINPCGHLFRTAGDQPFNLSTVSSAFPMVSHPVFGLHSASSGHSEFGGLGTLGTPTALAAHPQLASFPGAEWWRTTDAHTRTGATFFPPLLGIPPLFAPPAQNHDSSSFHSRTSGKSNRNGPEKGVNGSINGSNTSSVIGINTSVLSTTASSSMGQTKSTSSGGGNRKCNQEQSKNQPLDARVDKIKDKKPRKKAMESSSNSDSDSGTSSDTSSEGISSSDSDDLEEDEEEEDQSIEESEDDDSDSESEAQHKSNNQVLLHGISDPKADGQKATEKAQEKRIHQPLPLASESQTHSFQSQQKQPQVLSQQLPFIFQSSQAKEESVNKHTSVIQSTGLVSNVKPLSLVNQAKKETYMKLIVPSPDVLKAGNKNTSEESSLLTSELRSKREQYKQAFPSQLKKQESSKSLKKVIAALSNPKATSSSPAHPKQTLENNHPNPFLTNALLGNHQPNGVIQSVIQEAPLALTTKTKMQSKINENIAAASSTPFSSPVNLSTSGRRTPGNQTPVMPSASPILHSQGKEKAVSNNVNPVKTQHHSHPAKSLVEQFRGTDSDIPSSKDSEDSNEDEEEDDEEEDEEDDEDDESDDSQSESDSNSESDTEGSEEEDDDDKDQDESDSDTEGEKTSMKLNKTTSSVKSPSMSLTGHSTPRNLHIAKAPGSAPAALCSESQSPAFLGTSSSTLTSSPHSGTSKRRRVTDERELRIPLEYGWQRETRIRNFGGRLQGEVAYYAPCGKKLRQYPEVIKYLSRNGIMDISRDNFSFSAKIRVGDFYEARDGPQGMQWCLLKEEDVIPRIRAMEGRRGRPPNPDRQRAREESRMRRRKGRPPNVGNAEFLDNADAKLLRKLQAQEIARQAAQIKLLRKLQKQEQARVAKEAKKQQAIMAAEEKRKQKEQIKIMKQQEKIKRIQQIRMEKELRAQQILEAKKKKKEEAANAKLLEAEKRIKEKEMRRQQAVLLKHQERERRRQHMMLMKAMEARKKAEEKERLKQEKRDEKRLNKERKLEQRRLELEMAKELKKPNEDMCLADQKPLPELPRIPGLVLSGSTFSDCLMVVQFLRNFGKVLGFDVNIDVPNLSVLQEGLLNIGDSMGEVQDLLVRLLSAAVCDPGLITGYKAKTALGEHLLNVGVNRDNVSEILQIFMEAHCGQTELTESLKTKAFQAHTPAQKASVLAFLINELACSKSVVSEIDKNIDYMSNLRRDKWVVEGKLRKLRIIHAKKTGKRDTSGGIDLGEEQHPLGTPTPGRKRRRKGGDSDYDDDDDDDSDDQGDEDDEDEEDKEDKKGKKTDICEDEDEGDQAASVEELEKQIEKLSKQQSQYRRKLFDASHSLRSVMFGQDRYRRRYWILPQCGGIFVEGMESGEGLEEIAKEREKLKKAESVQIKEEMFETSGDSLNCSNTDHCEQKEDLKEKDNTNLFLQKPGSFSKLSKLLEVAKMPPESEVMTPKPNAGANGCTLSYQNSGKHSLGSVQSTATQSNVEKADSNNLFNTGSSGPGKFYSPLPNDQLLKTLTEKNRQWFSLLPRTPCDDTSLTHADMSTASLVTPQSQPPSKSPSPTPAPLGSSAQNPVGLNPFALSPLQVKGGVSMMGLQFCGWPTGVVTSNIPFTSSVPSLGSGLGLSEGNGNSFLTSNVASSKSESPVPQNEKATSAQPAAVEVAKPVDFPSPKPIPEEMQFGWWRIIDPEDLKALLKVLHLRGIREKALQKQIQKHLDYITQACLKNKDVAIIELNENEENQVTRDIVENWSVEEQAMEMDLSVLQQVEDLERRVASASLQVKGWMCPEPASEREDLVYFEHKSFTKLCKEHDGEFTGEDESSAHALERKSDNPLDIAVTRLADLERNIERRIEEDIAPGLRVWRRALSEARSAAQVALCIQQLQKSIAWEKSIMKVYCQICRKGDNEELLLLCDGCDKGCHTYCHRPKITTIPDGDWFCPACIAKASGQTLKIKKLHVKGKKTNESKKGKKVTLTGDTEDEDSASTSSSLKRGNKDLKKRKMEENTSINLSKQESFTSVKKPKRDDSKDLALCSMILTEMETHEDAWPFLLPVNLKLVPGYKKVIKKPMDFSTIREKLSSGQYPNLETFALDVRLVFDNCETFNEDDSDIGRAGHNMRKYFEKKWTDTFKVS
Outline: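 Multi-concentration screen (max 110 uM) measuring displacement of acetylated histone H3 peptide from BAZ2B by AlphaScreen, using 50 nM protein, 50 nM peptide and 10 ug/mL streptavidin donor plus Ni-chelate acceptor beads.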
With COC(=O)c1ccc(C2NC(C(=O)O)CS2)cc1 (stereo not drawn) the Potency was inconclusive: 79.4 µM [inhibitor, single point]. With Cc1ccc(CC(NC(=O)c2ccccc2)C(=O)NCC(=O)O)cc1 (stereo not drawn) (Bz-[ξPhe(4-Me)]-Gly-OH) the Potency was inconclusive: 100 µM [inhibitor, single point]. With O=c1n(Cc2ccc(F)cc2Cl)c2ccccc2c2nc(-c3ccccc3)nn12 the Potency was “inactive”. For O=C(CN1CCN(c2ccc(O)cc2)CC1)Nc1ccc(-c2ccccc2)cc1, the Potency was inconclusive: 63.1 µM [inhibitor, partial curve]. With COc1ccc(N2CCCn3c2nc2c3c(=O)n(CCCc3ccccc3)c(=O)n2C)cc1 the Potency was inconclusive: 44.7 µM [inhibitor, partial curve]. For Cc1ccc(CCNC(=O)c2nnc(Cc3cccc(F)c3)o2)cc1, the Potency was inconclusive: 39.8 µM [inhibitor, full curve, poor fit]. With O=S(=O)(c1ccc(Cl)cc1)c1nc(-c2ccccc2Br)oc1N1CCOCC1 the Potency was inconclusive: 10 µM [inhibitor, full curve]. For COC(=O)c1c(C)oc2c1cc(NS(=O)(=O)c1c(C)cc(C)cc1C)c1ccccc12, the Potency was inconclusive: 56.2 µM [inhibitor, partial curve]. For Fc1ccccc1C1c2[nH]c3ccccc3c2CCN1Cc1cccn1-c1ncccn1 (stereo not drawn), the Potency was active: 31.6 µM. In the case of Cc1cc(/C=C2\SC(=S)NC2=O)c(C)n1C1CC1, the Potency is reported as active: 44.7 µM. For CCOC(=O)c1cc(C)sc1NC(=O)CSc1nccn1C, the Potency was inconclusive: 39.8 µM [inhibitor, partial curve]. In the case of CCCc1cc(=O)n2nc(N3CCC(C(=O)NCc4ccc(C)o4)CC3)sc2n1, the Potency is reported as inconclusive: 89.1 µM [inhibitor, single point]. C=CCOC(=O)/C(=C\c1cccc2ccccc12)NC(=O)c1ccccc1 was tested, and the Potency was “inactive”. With COCCCNC(=O)C(=O)NCCCOC(C)C the Potency was “inactive”. With COc1ccc(-c2csc(NC(=O)CCN3C(=O)C4CC=CCC4C3=O)n2)cc1OC (stereo not drawn) the Potency was “inactive”. With O=C1CC(c2ccccc2)=NN1c1ccc([N+](=O)[O-])cc1 the Potency was active: 25.1 µM. For NC1=NC(=Nc2cccc(Cl)c2)c2ccccc21, the Potency was inconclusive: 79.4 µM [inhibitor, partial curve]. With CC(C)(Oc1ccc(CCNC(=O)c2ccc(-c3ccc(Cl)cc3)o2)cc1)C(=O)O the Potency was inconclusive: 79.4 µM [inhibitor, single point]. In the case of CC(C)(C)S(=O)(=O)/C(C#N)=N/Nc1ccc(C#N)cc1, the Potency is reported as active: 70.8 µM. With CCOc1ccc(S(=O)(=O)N2Cc3ccccc3CC2C(=O)O)cc1 (stereo not drawn) the Potency was inconclusive: 79.4 µM [inhibitor, partial curve]. For COc1ccc(N2CCN(C(=O)Cn3cnc4sc(C)c(S(=O)(=O)N5CCC(C)CC5)c4c3=O)CC2)cc1, the Potency was “inactive”. With COc1ccc(CNC(=S)N/N=C/c2ccc(O)c(OC)c2)cc1 the Potency was inconclusive: 44.7 µM [inhibitor, partial curve]. For NC(=O)CC[C@@H]1NC(=O)C(Cc2ccc(O)cc2)NC(=O)c2cc([N+](=O)[O-])cc(F)c2NCCC[C@@H](C(N)=O)NC1=O (stereo partly drawn), the Potency was inconclusive: 79.4 µM [inhibitor, single point]. For CN(C)CCN1C(=O)C(O)=C(C(=O)c2cc3ccccc3o2)C1c1ccc(N(C)C)cc1 (stereo not drawn), the Potency was inconclusive: 44.7 µM [inhibitor, partial curve]. In the case of CCN(CC)S(=O)(=O)c1ccc(NC(=O)Cc2cccs2)cc1, the Potency is reported as active: 70.8 µM. CC(=O)c1c(O)cc(C)n(-c2ccc(F)cc2)c1=O was tested, and the Potency was inconclusive: 89.1 µM [inhibitor, partial curve]. With COc1ccccc1NC(=O)C(C)OC(=O)CCCc1c[nH]c2ccccc12 (stereo not drawn) the Potency was inconclusive: 50.1 µM [inhibitor, partial curve]. For COc1ccc(N2CCN(CCNC(=O)c3ccc4c(c3)[nH]c(=S)n3c5ccccc5nc43)CC2)cc1, the Potency was inconclusive: 89.1 µM [inhibitor, single point]. In the case of COc1ccc(N2CCN(C3=CC(=O)N(c4cccc(Cl)c4)C3=O)CC2)cc1, the Potency is reported as active: 11.2 µM. In the case of C[C@H](NC(=O)C1CCN(S(=O)(=O)c2ccccc2)CC1)C(=O)NCc1ccc(Cl)cc1Cl, the Potency is reported as “inactive”. Clc1ccc(OCCCNCc2ccccc2)c2ccccc12 was tested, and the Potency was active: 50.1 µM. With Cc1ccc(N=C2S/C(=C/c3cccc(OCC(=O)O)c3)C(=O)N2C)cc1C the Potency was inconclusive: 79.4 µM [inhibitor, single point]. With O=[N+]([O-])c1cc(S(=O)(=O)Nc2cccc(Cl)c2)ccc1N=Nc1c(O)[nH]c2ccccc12 the Potency was inconclusive: 56.2 µM [inhibitor, partial curve]. With COc1ccc(NC(=O)Cn2cnc3c(nc4n3CCCCC4)c2=O)c(OC)c1 the Potency was “inactive”. With CCCOC(=O)c1c(N)sc2c1CCC2 the Potency was inconclusive: 70.8 µM [inhibitor, single point]. For Cc1ccc(NC2CCCN(C(=O)CCc3ccncc3)C2)cc1C (stereo not drawn), the Potency was inconclusive: 70.8 µM [inhibitor, single point]. With COC(=O)c1c(N)sc2c1CC(C)(C)OC2 the Potency was inconclusive: 79.4 µM [inhibitor, single point]. For O=C1CS/C(=N\N=C\c2ccco2)N1c1ccccc1, the Potency was active: 50.1 µM. With O=C(c1ccco1)N1CCN(c2nc(C3CC3)nc3c2nnn3Cc2ccccc2Cl)CC1 the Potency was inconclusive: 39.8 µM [inhibitor, full curve, poor fit]. For Cc1oc(-c2ccccc2Cl)nc1CN1CCCCC1c1cccnc1 (stereo not drawn), the Potency was inconclusive: 89.1 µM [inhibitor, single point]. For CCCCCn1c(CN2CCN(c3cc(Cl)ccc3C)CC2)nc2c1c(=O)[nH]c(=O)n2C, the Potency was “inactive”. Cc1nc2cc(-c3sccc3-n3cccc3)nn2c(C)c1C was tested, and the Potency was inconclusive: 50.1 µM [inhibitor, partial curve]. O=C(CCCN1C(=O)c2cccnc2Oc2ccc(Cl)cc21)N1CCCCC1 was tested, and the Potency was inconclusive: 50.1 µM [inhibitor, partial curve].
